According to PubChem BioAssay AID256 (DTP/NCI, 2004):
Values joined by “and” are separate entries in the source; they are usually repeats but may differ in a detail not shown here. Equal entries are not always repeated. Further values from the same series stand in other lists. Inconclusive results and toxic doses are left out.

Tested on: CD2F1 mice, L1210 leukemia ip, survival T/C
Experiment: NCI In Vivo Anticancer Drug Screen. Data for tumor model L1210 Leukemia (intraperitoneal) in CD2F1 (CDF1) mice
Details: higher = longer survival
Outline: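 Tumor-bearing mice (transplanted tumor) were split into treated and vehicle control groups, and the measured endpoint of each treated group was divided by that of its vehicle controls.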

O=c1n(CC2CO2)c(=O)n(CC2CO2)c(=O)n1CC1CO1 (stereo not drawn)
T/C (endpoint: mean survival time, dose: 25.0 mg/kg/injection, schedule: Q01DX009 (ip), vehicle: saline with Tween-80): 198 % of control
T/C (endpoint: mean survival time, dose: 25.0 mg/kg/injection, schedule: Q01DX009 (ip), vehicle: suspension in saline): 168 % of control
T/C (endpoint: mean survival time, dose: 50.0 mg/kg/injection, schedule: Q01DX009 (ip), vehicle: saline with Tween-80): 277 % of control
T/C (endpoint: mean survival time, dose: 50.0 mg/kg/injection, schedule: Q01DX009 (ip), vehicle: saline): 419 % of control
T/C (endpoint: mean survival time, dose: 50.0 mg/kg/injection, schedule: Q01DX009 (ip), vehicle: suspension in saline): 203 % of control and 285 % of control
T/C (endpoint: mean survival time, dose: 100.0 mg/kg/injection, schedule: Q01DX009 (ip), vehicle: saline with Tween-80): 297 % of control
T/C (endpoint: mean survival time, dose: 100.0 mg/kg/injection, schedule: Q01DX009 (ip), vehicle: saline): 172 % of control and 253 % of control
T/C (endpoint: mean survival time, dose: 100.0 mg/kg/injection, schedule: Q01DX009 (ip), vehicle: suspension in saline): 315 % of control
T/C (endpoint: mean survival time, dose: 150.0 mg/kg/injection, schedule: Q01DX009 (ip), vehicle: saline): 211 % of control
T/C (endpoint: mean survival time, dose: 150.0 mg/kg/injection, schedule: Q04DX003 (ip), vehicle: saline): 243 % of control
T/C (endpoint: mean survival time, dose: 200.0 mg/kg/injection, schedule: Q01DX009 (ip), vehicle: saline): 386 % of control
T/C (endpoint: mean survival time, dose: 200.0 mg/kg/injection, schedule: Q04DX005 (ip), vehicle: saline): 171 % of control
T/C (endpoint: mean survival time, dose: 300.0 mg/kg/injection, schedule: Q01DX009 (ip), vehicle: saline): 96 % of control
T/C (endpoint: mean survival time, dose: 300.0 mg/kg/injection, schedule: Q04DX003 (ip), vehicle: saline): 309 % of control
T/C (endpoint: mean survival time, dose: 300.0 mg/kg/injection, schedule: Q04DX005 (ip), vehicle: saline): 177 % of control
T/C (endpoint: median survival time, dose: 15.0 mg/kg/injection, schedule: Q03HX024 (ip), vehicle: saline): 246 % of control
T/C (endpoint: median survival time, dose: 20.0 mg/kg/injection, schedule: Q03HX016 (ip), vehicle: saline): 256 % of control
T/C (endpoint: median survival time, dose: 25.0 mg/kg/injection, schedule: Q03HX008 (ip), vehicle: saline): 186 % of control
T/C (endpoint: median survival time, dose: 25.0 mg/kg/injection, schedule: Q03HX024 (ip), vehicle: saline): 740 % of control
T/C (endpoint: median survival time, dose: 30.0 mg/kg/injection, schedule: Q03HX016 (ip), vehicle: saline): 296 % of control
T/C (endpoint: median survival time, dose: 35.0 mg/kg/injection, schedule: Q03HX008 (ip), vehicle: saline): 172 % of control
T/C (endpoint: median survival time, dose: 45.0 mg/kg/injection, schedule: Q03HX008 (ip), vehicle: saline): 111 % of control
T/C (endpoint: median survival time, dose: 45.0 mg/kg/injection, schedule: Q03HX024 (ip), vehicle: saline): 87 % of control
T/C (endpoint: median survival time, dose: 50.0 mg/kg/injection, schedule: Q01DX005 (ip), vehicle: saline): 165 % of control
T/C (endpoint: median survival time, dose: 50.0 mg/kg/injection, schedule: Q01DX009 (ip), vehicle: saline): 188 % of control
T/C (endpoint: median survival time, dose: 50.0 mg/kg/injection, schedule: Q03HX016 (ip), vehicle: saline): 188 % of control
T/C (endpoint: median survival time, dose: 55.0 mg/kg/injection, schedule: Q03HX008 (ip), vehicle: saline): 98 % of control
T/C (endpoint: median survival time, dose: 75.0 mg/kg/injection, schedule: Q01DX009 (ip), vehicle: saline): 213 % of control
T/C (endpoint: median survival time, dose: 100.0 mg/kg/injection, schedule: Q01DX005 (ip), vehicle: saline): 188 % of control
T/C (endpoint: median survival time, dose: 100.0 mg/kg/injection, schedule: Q01DX009 (ip), vehicle: saline): 201 % of control
T/C (endpoint: median survival time, dose: 150.0 mg/kg/injection, schedule: Q01DX005 (ip), vehicle: saline): 176 % of control
T/C (endpoint: median survival time, dose: 150.0 mg/kg/injection, schedule: Q01DX009 (ip), vehicle: saline): 202 % of control
T/C (endpoint: median survival time, dose: 200.0 mg/kg/injection, schedule: Q01DX005 (ip), vehicle: saline): 197 % of control
T/C (endpoint: median survival time, dose: 200.0 mg/kg/injection, schedule: Q04DX003 (ip), vehicle: saline): 207 % of control
T/C (endpoint: median survival time, dose: 300.0 mg/kg/injection, schedule: Q04DX003 (ip), vehicle: saline): 222 % of control
T/C (endpoint: median survival time, dose: 300.0 mg/kg/injection, schedule: Q08DX002 (ip), vehicle: saline): 172 % of control
T/C (endpoint: median survival time, dose: 350.0 mg/kg/injection, schedule: Q01DX001 (oral), vehicle: saline): 108 % of control
T/C (endpoint: median survival time, dose: 400.0 mg/kg/injection, schedule: Q04DX003 (ip), vehicle: saline): 246 % of control
